# From patent US9205064B2, “Methods for the diagnosis of oncological disorders using epimetabolic shifters, multidimensional intracellular molecules, or environmental influencers” (Berg LLC, priority 2009, dated 2015)
# Columns and labels:
# Format in all cases: cell-based
# [1] = test system: SK-MEL-28 cells; assay: Real-time PCR Apoptosis Array; conditions: 100 μM
# Description: (§1) The formulation of the Q10 was as follows. […] The resulting solution was warmed in a 65° C. water bath and vortexed at high speed. […] For the control vehicle, 9.5 mL of media was added to 500 μL of isopropanol. The control stock was further diluted (2 mL of stock) with 8 mL of media.
# (§2) RNA was quantified by measuring Optical Density at 260 nm.
# (§3) (SABiosciences, Frederick, Md.).
# A vehicle was prepared in parallel with a similar protocol except that the Coenzyme Q10 was not added.
# Changes in mRNA levels were evaluated using real-time PCR quantification to assess mRNA levels in pre-selected subsets containing […] pathway specific targets.
# For the interpretation of mRNA results, the genes that were altered in their mRNA transcription by a two-fold level were identified and evaluated. The level of gene transcription to produce mRNA only provides a rough estimate of potential changes in the level of the expressed protein. The skilled artisan will appreciate that each mRNA may have different rates at which it is degraded or its translation inefficiently, thus resulting in differing amounts of protein.
# [2] = test system: SK-MEL-28 cells; assay: Real-time PCR Oxidative Stress and Antioxidant Defense Array
# Description: The resulting solution was warmed in a 65° C. water bath and vortexed at high speed. […] For the control vehicle, 9.5 mL of media was added to 500 μL of isopropanol. The control stock was further diluted (2 mL of stock) with 8 mL of media. […] RNA was quantified by measuring Optical Density at 260 nm. […] Experimental details: […] (SABiosciences, Frederick, Md.). […] Results are given only for those genes that are regulated in two independent experiments. […] Further experiments were carried out using SKMEL-28 cells. […] The PCR array (SABiosciences) is a set of optimized real-time PCR primer assays on 96-well plates for pathway or disease focused genes as well as appropriate RNA quality controls. The PCR array performs gene expression analysis with real-time PCR sensitivity and the multi-gene profiling capability of a microarray.
# [3] = test system: SK-MEL-28 cells; assay: Real-time PCR Diabetes Array; conditions: 100 μM Q10, at 48 hours
# Description: as §1, §2, §3
# [4] = test system: SK-MEL-28 cells; assay: Antibody microarray (Panorama XP725 Antibody Array)
compound,measurement,setting,value
"COC1=C(OC)C(=O)C(C/C=C(\C)CC/C=C(\C)CC/C=C(\C)CC/C=C(\C)CC/C=C(\C)CC/C=C(\C)CC/C=C(\C)CC/C=C(\C)CC/C=C(\C)CCC=C(C)C)=C(C)C1=O [Q10, Coenzyme Q10]",ABL1 change in mRNA level,[1]; 6 hr Q10,1.42
same,B2M change in mRNA level,[1]; 6 hr Q10,1.74
same,BAG1 change in mRNA level,[1]; 6 hr Q10,1.41
same,BAK1 change in mRNA level,[1]; 6 hr Q10,1.06
same,BCL2L1 change in mRNA level,[1]; 6 hr Q10,−4.94
same,BCL2L11 change in mRNA level,[1]; 6 hr Q10,2.13
same,BCL2 change in mRNA level,[1]; 6 hr Q10,−2.98
same,BCL10 change in mRNA level,[1]; 6 hr Q10,1.55
same,BIRC3 change in mRNA level,[1]; 6 hr Q10,−13.68
same,BNIP2 change in mRNA level,[1]; 6 hr Q10,1.46
same,CASP9 change in mRNA level,[1]; 6 hr Q10,1.32
same,CD27 change in mRNA level,[1]; 6 hr Q10,−3.40
same,CIDEB change in mRNA level,[1]; 6 hr Q10,−3.48
same,GADD45A change in mRNA level,[1]; 6 hr Q10,1.07
same,HRK change in mRNA level,[1]; 6 hr Q10,1.18
same,IGF1R change in mRNA level,[1]; 6 hr Q10,1.77
same,TNFRSF1A change in mRNA level,[1]; 6 hr Q10,−4.53
same,TNFRSF10B change in mRNA level,[1]; 6 hr Q10,−2.07
same,TP73 change in mRNA level,[1]; 6 hr Q10,−4.66
same,B2M change in mRNA level,[1]; 16 hr Q10,1.76
same,BAG1 change in mRNA level,[1]; 16 hr Q10,1.44
same,BAK1 change in mRNA level,[1]; 16 hr Q10,2.73
same,BCL2L1 change in mRNA level,[1]; 16 hr Q10,−1.80
same,BCL2L11 change in mRNA level,[1]; 16 hr Q10,2.41
same,BCL2 change in mRNA level,[1]; 16 hr Q10,−1.63
same,BCL10 change in mRNA level,[1]; 16 hr Q10,1.87
same,BIRC3 change in mRNA level,[1]; 16 hr Q10,−1.98
same,BNIP2 change in mRNA level,[1]; 16 hr Q10,1.51
same,CASP9 change in mRNA level,[1]; 16 hr Q10,3.96
same,CD27 change in mRNA level,[1]; 16 hr Q10,−2.38
same,CIDEB change in mRNA level,[1]; 16 hr Q10,1.56
same,GADD45A change in mRNA level,[1]; 16 hr Q10,3.34
same,HRK change in mRNA level,[1]; 16 hr Q10,4.52
same,IGF1R change in mRNA level,[1]; 16 hr Q10,1.09
same,TNFRSF1A change in mRNA level,[1]; 16 hr Q10,2.28
same,TNFRSF10A change in mRNA level,[1]; 16 hr Q10,−5.26
same,TNFRSF10B change in mRNA level,[1]; 16 hr Q10,1.53
same,TP73 change in mRNA level,[1]; 16 hr Q10,−9.80
same,TRAF4 change in mRNA level,[1]; 16 hr Q10,2.63
same,ABL1 change in mRNA level,[1]; 24 hr Q10,−1.22
same,B2M change in mRNA level,[1]; 24 hr Q10,1.58
same,BAG1 change in mRNA level,[1]; 24 hr Q10,−1.61
same,BAK1 change in mRNA level,[1]; 24 hr Q10,−1.00
same,BCL2L1 change in mRNA level,[1]; 24 hr Q10,−6.17
same,BCL2L11 change in mRNA level,[1]; 24 hr Q10,1.92
same,BCL2 change in mRNA level,[1]; 24 hr Q10,−2.82
same,BCL10 change in mRNA level,[1]; 24 hr Q10,1.48
same,BIRC3 change in mRNA level,[1]; 24 hr Q10,−2.42
same,BNIP2 change in mRNA level,[1]; 24 hr Q10,1.57
same,CASP9 change in mRNA level,[1]; 24 hr Q10,1.83
same,CD27 change in mRNA level,[1]; 24 hr Q10,−1.35
same,CIDEB change in mRNA level,[1]; 24 hr Q10,−3.69
same,GADD45A change in mRNA level,[1]; 24 hr Q10,1.13
same,HRK change in mRNA level,[1]; 24 hr Q10,2.73
same,IGF1R change in mRNA level,[1]; 24 hr Q10,1.33
same,TNFRSF10A change in mRNA level,[1]; 24 hr Q10,−4.33
same,TNFRSF10B change in mRNA level,[1]; 24 hr Q10,−1.81
same,TP73 change in mRNA level,[1]; 24 hr Q10,−8.71
same,TRAF4 change in mRNA level,[1]; 24 hr Q10,−1.58
same,ABL1 change in mRNA level,[1]; 72 hr Q10,−2.03
same,BAG1 change in mRNA level,[1]; 72 hr Q10,−2.45
same,BAK1 change in mRNA level,[1]; 72 hr Q10,−4.54
same,BCL2L1 change in mRNA level,[1]; 72 hr Q10,−7.04
same,BCL2L11 change in mRNA level,[1]; 72 hr Q10,2.51
same,BCL2 change in mRNA level,[1]; 72 hr Q10,−11.36
same,BCL10 change in mRNA level,[1]; 72 hr Q10,−3.11
same,BIRC3 change in mRNA level,[1]; 72 hr Q10,−3.42
same,BNIP2 change in mRNA level,[1]; 72 hr Q10,−1.61
same,CASP9 change in mRNA level,[1]; 72 hr Q10,1.14
same,CD27 change in mRNA level,[1]; 72 hr Q10,−12.72
same,CIDEB change in mRNA level,[1]; 72 hr Q10,−2.59
same,GADD45A change in mRNA level,[1]; 72 hr Q10,−2.36
same,HRK change in mRNA level,[1]; 72 hr Q10,−1.14
same,IGF1R change in mRNA level,[1]; 72 hr Q10,1.25
same,TNFRSF10A change in mRNA level,[1]; 72 hr Q10,−11.84
same,TNFRSF10B change in mRNA level,[1]; 72 hr Q10,−710.49
same,TP73 change in mRNA level,[1]; 72 hr Q10,−26.96
same,TRAF4 change in mRNA level,[1]; 72 hr Q10,−740.66
same,NOX5 (NADPH oxidase) mRNA,[2]; 100 μM Q10,levels do not change
same,Neutrophil cytosolic factor 1 (NCF1) mRNA,"[2]; 100 μM Q10, 16 hour time point and onward",induced at very high levels
same,DHCR24 mRNA Regulation,"[2]; 100 μM Q10, at 6 hours",Down Regulation
same,GTF2I mRNA Regulation,"[2]; 100 μM Q10, at 6 hours",Down Regulation
same,MPV17 mRNA Regulation,"[2]; 100 μM Q10, at 6 hours",Down Regulation
same,PRDX2 mRNA Regulation,"[2]; 100 μM Q10, at 6 hours",Down Regulation
same,MGST3 mRNA Regulation,"[2]; 100 μM Q10, at 16 hours",Upregulation at
same,RNF7 mRNA Regulation,"[2]; 100 μM Q10, at 16 hours",Up Regulation at
same,SIRT2 mRNA Regulation,"[2]; 100 μM Q10, at 16 hours",Up regulation at
same,SOD1 mRNA Regulation,"[2]; 100 μM Q10, at 16 hours",Up Regulation at
same,SOD2 mRNA Regulation,"[2]; 100 μM Q10, at 16 hours",Up regulation at
same,Nitric oxide synthase 2A (NOS2A) mRNA,"[2]; 100 μM Q10, early",second major early induced protein
same,AOX1 mRNA Regulation,"[2]; 100 μM Q10, from 16 hours",Up regulation
same,PRDX4 mRNA Regulation,"[2]; 100 μM Q10, from 24 hours",Down Regulation
same,Neutrophil cytosolic factor 2 (NCF2) mRNA,"[2]; 100 μM Q10, observed at 6 hours",one of the initial top induced mRNA's
same,NCF1 mRNA level change,"[2]; 100 μM, 16 hr",high
same,CEBPA Regulation,[3],Up regulated at
same,TNF Regulation,[3],Up regulated at
same,"protein levels of Bcl-xl, Bmf, BTK, BLK, cJun (pSer63), Connexin 32, PUMA bbc3, BID, Par4, cCbl","[4]; 50 μM Q10, 24 hr",altered levels
same,cerbB3 protein level Ratio,"[4]; 50 μM, 24 hour",2.0
same,BID protein level Ratio,"[4]; 50 μM, 24 hour, second BID entry",2.0
